Measurements from paper PMC12820563, “FoxP3 forms a head-to-head dimer in vivo and stabilizes its multimerization on adjacent microsatellites”.
The other results are listed elsewhere or left out.

Biological target: T1, MBP-FoxP1dN (Mus musculus, UniProt P58462 326-579)
T1 sequence: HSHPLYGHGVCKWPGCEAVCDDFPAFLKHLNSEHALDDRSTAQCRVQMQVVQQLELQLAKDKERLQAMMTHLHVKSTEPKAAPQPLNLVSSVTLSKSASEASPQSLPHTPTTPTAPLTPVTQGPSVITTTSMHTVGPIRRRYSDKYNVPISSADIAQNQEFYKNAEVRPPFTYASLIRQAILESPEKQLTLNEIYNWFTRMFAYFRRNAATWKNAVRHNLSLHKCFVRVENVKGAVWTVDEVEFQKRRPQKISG
Assay: PD-seq (MBP pull-down with sequencing); 20 mM Tris-HCl pH 7.5, 100 mM NaCl, 1.5 mM MgCl2, 0.4 uM protein, 0.1 uM dsDNA library, 30 min, room temperature, amylose pull-down; high values mean tight binding
Settings: protein: recombinant; tags: His6-MBP; chain copies: 2; dsDNA, one strand shown
Method in brief: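 Binding is the reads-per-million enrichment of pull-down relative to input, pooled across replicates. For this, 0.4 µM His6-MBP-tagged mouse FoxP3 or FoxP1 fragment lacking the N-terminus, made in E. coli, was incubated with 0.1 µM Klenow-filled double-stranded degenerate DNA library for 30 min at room temperature in Tris pH 7.5 buffer with NaCl and MgCl2. Complexes bound to amylose resin were washed three times before proteinase K released the DNA for PCR barcoding and Illumina sequencing.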

Row | Sequence | binding signal
1 | GATGATTGTTCTCCCAGCTGATGAATTGTGGCTATCGAGTAAACAAATTTTCCTAATCTTTCTGTTCAAGCGCCATCTAC | 1.1 RPM ratio (pull-down/input)
2 | GATGATTGTTCTCCCAGCTGATGAATTGGGATGATCGAGTAAACAAATTTTCCTAATCTTTCTGTTCAAGCGCCATCTAC | 0.921 RPM ratio (pull-down/input)
3 | GATGATTGTTCTCCCAGCTGATGAATTATGCCATTCGAGTAAACAAATTTTCCTAATCTTTCTGTTCAAGCGCCATCTAC | 1.11 RPM ratio (pull-down/input)
4 | GATGATTGTTCTCCCAGCTGATGAATTATCAGAATCGAGTAAACAAATTTTCCTAATCTTTCTGTTCAAGCGCCATCTAC | 1.03 RPM ratio (pull-down/input)
5 | GATGATTGTTCTCCCAGCTGATGAATTCTCTCCCTCGAGTAAACAAATTTTCCTAATCTTTCTGTTCAAGCGCCATCTAC | 0.835 RPM ratio (pull-down/input)
6 | GATGATTGTTCTCCCAGCTGATGAATTTCTAACGTCGAGTAAACAAATTTTCCTAATCTTTCTGTTCAAGCGCCATCTAC | 0.955 RPM ratio (pull-down/input)
7 | GATGATTGTTCTCCCAGCTGATGAATTGTGCTAGTCGAGTAAACAAATTTTCCTAATCTTTCTGTTCAAGCGCCATCTAC | 1.06 RPM ratio (pull-down/input)
8 | GATGATTGTTCTCCCAGCTGATGAATTATTGATGTCGAGTAAACAAATTTTCCTAATCTTTCTGTTCAAGCGCCATCTAC | 1.85 RPM ratio (pull-down/input)
9 | GATGATTGTTCTCCCAGCTGATGAATTCTTACACTCGAGTAAACAAATTTTCCTAATCTTTCTGTTCAAGCGCCATCTAC | 0.933 RPM ratio (pull-down/input)
10 | GATGATTGTTCTCCCAGCTGATGAATTCTCCTGTTCGAGTAAACAAATTTTCCTAATCTTTCTGTTCAAGCGCCATCTAC | 0.847 RPM ratio (pull-down/input)
11 | GATGATTGTTCTCCCAGCTGATGAATTCAGCAGTTCGAGTAAACAAATTTTCCTAATCTTTCTGTTCAAGCGCCATCTAC | 0.816 RPM ratio (pull-down/input)
12 | GATGATTGTTCTCCCAGCTGATGAATTGCGCTAGTCGAGTAAACAAATTTTCCTAATCTTTCTGTTCAAGCGCCATCTAC | 1.06 RPM ratio (pull-down/input)
13 | GATGATTGTTCTCCCAGCTGATGAATTCGCGTTGTCGAGTAAACAAATTTTCCTAATCTTTCTGTTCAAGCGCCATCTAC | 1.08 RPM ratio (pull-down/input)
14 | GATGATTGTTCTCCCAGCTGATGAATTTTCTGTGTCGAGTAAACAAATTTTCCTAATCTTTCTGTTCAAGCGCCATCTAC | 0.968 RPM ratio (pull-down/input)
15 | GATGATTGTTCTCCCAGCTGATGAATTTTGAGGCTCGAGTAAACAAATTTTCCTAATCTTTCTGTTCAAGCGCCATCTAC | 0.901 RPM ratio (pull-down/input)
16 | GATGATTGTTCTCCCAGCTGATGAATTTTGGGCGTCGAGTAAACAAATTTTCCTAATCTTTCTGTTCAAGCGCCATCTAC | 0.936 RPM ratio (pull-down/input)
17 | GATGATTGTTCTCCCAGCTGATGAATTACGGAGGTCGAGTAAACAAATTTTCCTAATCTTTCTGTTCAAGCGCCATCTAC | 0.909 RPM ratio (pull-down/input)
18 | GATGATTGTTCTCCCAGCTGATGAATTCCAATTCTCGAGTAAACAAATTTTCCTAATCTTTCTGTTCAAGCGCCATCTAC | 0.895 RPM ratio (pull-down/input)
19 | GATGATTGTTCTCCCAGCTGATGAATTAAGCGGCTCGAGTAAACAAATTTTCCTAATCTTTCTGTTCAAGCGCCATCTAC | 0.738 RPM ratio (pull-down/input)
20 | GATGATTGTTCTCCCAGCTGATGAATTTACAGCCTCGAGTAAACAAATTTTCCTAATCTTTCTGTTCAAGCGCCATCTAC | 1.03 RPM ratio (pull-down/input)

Row | Sequence | binding signal
21 | GATGATTGTTCTCCCAGCTGATGAATTCACATGTTCGAGTAAACAAATTTTCCTAATCTTTCTGTTCAAGCGCCATCTAC | 1.06 RPM ratio (pull-down/input)
22 | GATGATTGTTCTCCCAGCTGATGAATTGAGAGCATCGAGTAAACAAATTTTCCTAATCTTTCTGTTCAAGCGCCATCTAC | 0.953 RPM ratio (pull-down/input)
23 | GATGATTGTTCTCCCAGCTGATGAATTGGGCCGCTCGAGTAAACAAATTTTCCTAATCTTTCTGTTCAAGCGCCATCTAC | 0.814 RPM ratio (pull-down/input)
24 | GATGATTGTTCTCCCAGCTGATGAATTTTGCTTCTCGAGTAAACAAATTTTCCTAATCTTTCTGTTCAAGCGCCATCTAC | 1.04 RPM ratio (pull-down/input)
25 | GATGATTGTTCTCCCAGCTGATGAATTCTCTAATTCGAGTAAACAAATTTTCCTAATCTTTCTGTTCAAGCGCCATCTAC | 0.933 RPM ratio (pull-down/input)
26 | GATGATTGTTCTCCCAGCTGATGAATTCACGTGATCGAGTAAACAAATTTTCCTAATCTTTCTGTTCAAGCGCCATCTAC | 0.794 RPM ratio (pull-down/input)
27 | GATGATTGTTCTCCCAGCTGATGAATTTGACCTGTCGAGTAAACAAATTTTCCTAATCTTTCTGTTCAAGCGCCATCTAC | 0.762 RPM ratio (pull-down/input)
28 | GATGATTGTTCTCCCAGCTGATGAATTCCAACCCTCGAGTAAACAAATTTTCCTAATCTTTCTGTTCAAGCGCCATCTAC | 0.758 RPM ratio (pull-down/input)
29 | GATGATTGTTCTCCCAGCTGATGAATTTGGACACTCGAGTAAACAAATTTTCCTAATCTTTCTGTTCAAGCGCCATCTAC | 0.899 RPM ratio (pull-down/input)
30 | GATGATTGTTCTCCCAGCTGATGAATTCAGAGCTTCGAGTAAACAAATTTTCCTAATCTTTCTGTTCAAGCGCCATCTAC | 0.783 RPM ratio (pull-down/input)
31 | GATGATTGTTCTCCCAGCTGATGAATTGTGTGCCTCGAGTAAACAAATTTTCCTAATCTTTCTGTTCAAGCGCCATCTAC | 1.14 RPM ratio (pull-down/input)
32 | GATGATTGTTCTCCCAGCTGATGAATTGGAGGGTTCGAGTAAACAAATTTTCCTAATCTTTCTGTTCAAGCGCCATCTAC | 0.86 RPM ratio (pull-down/input)
33 | GATGATTGTTCTCCCAGCTGATGAATTAAGTCTCTCGAGTAAACAAATTTTCCTAATCTTTCTGTTCAAGCGCCATCTAC | 0.885 RPM ratio (pull-down/input)
34 | GATGATTGTTCTCCCAGCTGATGAATTTCACCATTCGAGTAAACAAATTTTCCTAATCTTTCTGTTCAAGCGCCATCTAC | 0.883 RPM ratio (pull-down/input)
35 | GATGATTGTTCTCCCAGCTGATGAATTTTCGGTTTCGAGTAAACAAATTTTCCTAATCTTTCTGTTCAAGCGCCATCTAC | 0.921 RPM ratio (pull-down/input)
36 | GATGATTGTTCTCCCAGCTGATGAATTCCATGACTCGAGTAAACAAATTTTCCTAATCTTTCTGTTCAAGCGCCATCTAC | 0.839 RPM ratio (pull-down/input)
37 | GATGATTGTTCTCCCAGCTGATGAATTAACATGGTCGAGTAAACAAATTTTCCTAATCTTTCTGTTCAAGCGCCATCTAC | 0.917 RPM ratio (pull-down/input)
38 | GATGATTGTTCTCCCAGCTGATGAATTCGACTGGTCGAGTAAACAAATTTTCCTAATCTTTCTGTTCAAGCGCCATCTAC | 0.809 RPM ratio (pull-down/input)
39 | GATGATTGTTCTCCCAGCTGATGAATTGAGAAGATCGAGTAAACAAATTTTCCTAATCTTTCTGTTCAAGCGCCATCTAC | 0.831 RPM ratio (pull-down/input)
40 | GATGATTGTTCTCCCAGCTGATGAATTCTTTGTCTCGAGTAAACAAATTTTCCTAATCTTTCTGTTCAAGCGCCATCTAC | 0.931 RPM ratio (pull-down/input)
